# According to the BET-seq Pho4 binding data (Le et al. 2018):
# This is one part of the list. Values were computed here from the reads of four pooled replicates and scatter widely.
# Biological target: T1, Pho4 (S. cerevisiae) (UniProt P07270)
# T1 sequence: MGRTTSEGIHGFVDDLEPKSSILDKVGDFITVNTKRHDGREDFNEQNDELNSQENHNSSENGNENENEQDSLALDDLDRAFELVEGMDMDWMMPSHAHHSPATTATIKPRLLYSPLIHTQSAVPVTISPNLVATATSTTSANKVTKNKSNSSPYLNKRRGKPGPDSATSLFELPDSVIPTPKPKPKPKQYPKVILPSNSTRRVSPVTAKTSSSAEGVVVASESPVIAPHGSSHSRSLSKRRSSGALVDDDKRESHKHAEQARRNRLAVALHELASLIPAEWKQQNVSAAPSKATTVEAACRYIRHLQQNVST
# Assay: relative binding free energy (BET-seq); higher = weaker binding
# Conditions: reference: library average
row,Sequence,relative binding free energy
1,TATGTCACGTGACTGA,0.31 kcal/mol
2,GTGTGCACGTGGTCAA,-0.06 kcal/mol
3,AGCTGCACGTGGCGTT,-0.11 kcal/mol
4,CGGTACACGTGGCGGT,0.01 kcal/mol
5,TGGTTCACGTGGTACG,0.24 kcal/mol
6,TGATTCACGTGTTAGG,0.24 kcal/mol
7,TCAGTCACGTGTGATT,0.23 kcal/mol
8,GGGTGCACGTGATACT,0.17 kcal/mol
9,CGTAGCACGTGGGTGT,-0.28 kcal/mol
10,ATGTGCACGTGTAAAG,-0.11 kcal/mol
11,CTGTGCACGTGGCTGT,-0.04 kcal/mol
12,ACAGGCACGTGGTGCT,-0.08 kcal/mol
13,GAAATCACGTGATTGG,0.45 kcal/mol
14,TGGGGCACGTGATTCG,0.1 kcal/mol
15,GGTTGCACGTGAATCT,0.23 kcal/mol
16,GTGGACACGTGAGGGC,0.26 kcal/mol
17,TGGGTCACGTGTGAAC,0.18 kcal/mol
18,AATTTCACGTGTTTCT,0.26 kcal/mol
19,AGCGGCACGTGATGGC,0.01 kcal/mol
20,TGGCTCACGTGAAATT,0.4 kcal/mol
21,TTAAACACGTGAGGGA,0.14 kcal/mol
22,GTTCGCACGTGGGTGT,-0.1 kcal/mol
23,TCATACACGTGATGGT,0.07 kcal/mol
24,TCGAGCACGTGGTGTA,-0.18 kcal/mol
25,TAAGTCACGTGGTAAA,0.14 kcal/mol

row,Sequence,relative binding free energy
1,TCTTACACGTGTAATT,0.22 kcal/mol
2,TTCGGCACGTGTGTGA,0.01 kcal/mol
3,TTGTTCACGTGGAACT,0.37 kcal/mol
4,AGAAGCACGTGTGATG,-0.05 kcal/mol
5,TATTACACGTGATCGG,0.21 kcal/mol
6,GCTGCCACGTGGGGTG,-0.24 kcal/mol
7,AGGGGCACGTGTTCGC,-0.09 kcal/mol
8,TTAATCACGTGCAGTT,0.11 kcal/mol
9,TGTAACACGTGGACGT,-0.1 kcal/mol
10,TTTGACACGTGAATGT,0.23 kcal/mol
11,GGGGTCACGTGGCGCC,0.19 kcal/mol
12,GTGTTCACGTGTATTA,0.27 kcal/mol
13,ACTGTCACGTGTGGCG,0.08 kcal/mol
14,GTCATCACGTGCGGTT,0.1 kcal/mol
15,TTAAGCACGTGTAGTA,0.01 kcal/mol
16,TGGAACACGTGAATGT,0.31 kcal/mol
17,AAGGTCACGTGCTGTT,0.02 kcal/mol
18,AGTTTCACGTGGTAGT,0.18 kcal/mol
19,AGAAGCACGTGCTGTT,-0.01 kcal/mol
20,AATAGCACGTGTGGCT,-0.14 kcal/mol
21,AACATCACGTGGTTTG,0.18 kcal/mol
22,AAAAGCACGTGGTTAG,-0.07 kcal/mol
23,ACTTGCACGTGTGGTG,0.07 kcal/mol
24,TTTTTCACGTGCTATG,0.22 kcal/mol
25,TATAGCACGTGTACGG,-0.06 kcal/mol

row,Sequence,relative binding free energy
1,TGCTACACGTGGGAAG,0.04 kcal/mol
2,CTCGTCACGTGATGGG,0.12 kcal/mol
3,CGGTGCACGTGCGGAT,-0.16 kcal/mol
4,TTTCACACGTGCTTTG,0.07 kcal/mol
5,AATTGCACGTGCTGGT,-0.07 kcal/mol
6,GGCTTCACGTGGCCGG,0.32 kcal/mol
7,GTGGGCACGTGTTACA,-0.11 kcal/mol
8,TGTAGCACGTGCTGAG,-0.08 kcal/mol
9,AATTACACGTGTGATT,0.09 kcal/mol
10,CATGTCACGTGTTGGC,0.05 kcal/mol
11,AATTTCACGTGTTTGT,0.15 kcal/mol
12,GTTTACACGTGTGCGT,0.2 kcal/mol
13,AAAGGCACGTGCGTGG,-0.21 kcal/mol
14,TATTACACGTGGGCGT,-0.02 kcal/mol
15,TTGGTCACGTGATTGC,0.23 kcal/mol
16,GGGTTCACGTGGGCGG,0.25 kcal/mol
17,GTGCCCACGTGTAGGG,-0.14 kcal/mol
18,TTTGGCACGTGCATTA,-0.32 kcal/mol
19,TTTAGCACGTGGGCAG,-0.2 kcal/mol
20,CGGTGCACGTGGTAAT,-0.01 kcal/mol
21,GAGTGCACGTGTTCGA,0.04 kcal/mol
22,GTCATCACGTGTGAAG,0.23 kcal/mol
23,GTATACACGTGTTGCG,0.12 kcal/mol
24,CTGAGCACGTGGGGCG,-0.2 kcal/mol
25,GAGGGCACGTGGTGCA,-0.03 kcal/mol

row,Sequence,relative binding free energy
1,TGAGGCACGTGATCTG,-0.2 kcal/mol
2,CGTTTCACGTGGCGGT,0.21 kcal/mol
3,TGATCCACGTGGTATT,0.04 kcal/mol
4,TTGGTCACGTGTGTCC,0.13 kcal/mol
5,TAGCGCACGTGGCGTT,-0.2 kcal/mol
6,TCTTGCACGTGAGTTT,0.23 kcal/mol
7,TGTGCCACGTGTTTGA,-0.07 kcal/mol
8,AATGTCACGTGAGGCG,0.34 kcal/mol
9,GATTGCACGTGAGGAG,0.27 kcal/mol
10,TCTTACACGTGAATGG,0.39 kcal/mol
11,GAAGGCACGTGTATGA,0.03 kcal/mol
12,TATCTCACGTGATGTG,0.15 kcal/mol
13,AATTTCACGTGTGCGT,0.08 kcal/mol
14,TTGGGCACGTGGCCTG,-0.35 kcal/mol
15,ATATTCACGTGTCATT,0.24 kcal/mol
16,TTTAGCACGTGTAGTG,0 kcal/mol
17,GTAGTCACGTGCTTGA,0.13 kcal/mol
18,GTATGCACGTGGACAT,0.05 kcal/mol
19,ATAGGCACGTGGTACT,-0.25 kcal/mol
20,CGGTCCACGTGGCGGT,0.08 kcal/mol
21,TGGGCCACGTGGGAGA,-0.22 kcal/mol
22,TGTTGCACGTGCGTCA,-0.12 kcal/mol
23,GGGGGCACGTGAAAAG,0.14 kcal/mol
24,GTCGACACGTGTTATT,0.2 kcal/mol
25,TTCAGCACGTGAGTGG,0.33 kcal/mol

row,Sequence,relative binding free energy
1,ATCAGCACGTGTGGTT,-0.03 kcal/mol
2,TGCTTCACGTGGGCAG,0.22 kcal/mol
3,ATGTGCACGTGATAAG,0.1 kcal/mol
4,GTCGTCACGTGTTTTG,0.21 kcal/mol
5,TAGAGCACGTGTGTGC,-0.08 kcal/mol
6,GTCGTCACGTGTGGTT,0.17 kcal/mol
7,TACGGCACGTGGGGCA,-0.19 kcal/mol
8,AAATTCACGTGGTTGT,0.36 kcal/mol
9,TAAAGCACGTGGGGAT,-0.08 kcal/mol
10,GTGTTCACGTGTGATG,0.33 kcal/mol
11,TATGGCACGTGGAGAA,0 kcal/mol
12,CTGTGCACGTGCGGTG,-0.03 kcal/mol
13,CGGACCACGTGGGGGA,-0.15 kcal/mol
14,GTGGGCACGTGACAGC,0.08 kcal/mol
15,TTTGTCACGTGAGGCG,0.36 kcal/mol
16,TGTTCCACGTGGGGCG,-0.09 kcal/mol
17,GGAGGCACGTGGTTTA,-0.07 kcal/mol
18,GAGGGCACGTGTTGGG,0.04 kcal/mol
19,GGTATCACGTGAATTT,0.44 kcal/mol
20,GAGTGCACGTGGGGAG,0.01 kcal/mol
21,TGGCGCACGTGGCAGG,-0.25 kcal/mol
22,ATTCGCACGTGTGGTA,0.02 kcal/mol
23,TGGGCCACGTGGGCTG,-0.4 kcal/mol
24,TATTGCACGTGTTGGC,0.05 kcal/mol
25,GTTCTCACGTGGCTAT,0.4 kcal/mol

row,Sequence,relative binding free energy
1,TGAGGCACGTGTACGA,-0.11 kcal/mol
2,GGCGTCACGTGTAGCG,0.11 kcal/mol
3,TCAGTCACGTGAGTTT,0.32 kcal/mol
4,ATGTTCACGTGTGCTT,0.28 kcal/mol
5,TGGTTCACGTGGTGGG,0.37 kcal/mol
6,TGTGGCACGTGCTGTC,-0.32 kcal/mol
7,TTGTGCACGTGTTTAT,-0.04 kcal/mol
8,TAACTCACGTGTTGGT,0.16 kcal/mol
9,ATGGTCACGTGGCCGT,0.04 kcal/mol
10,GTATGCACGTGGGAAG,-0.02 kcal/mol
11,AGGGACACGTGTTTAC,0.26 kcal/mol
12,GGGAGCACGTGTCGCG,0.05 kcal/mol
13,ACGGTCACGTGGAAGG,0 kcal/mol
14,TGGTGCACGTGAAATG,0.23 kcal/mol
15,TCTAGCACGTGAGGGG,0.18 kcal/mol
16,TTATACACGTGATTAT,0.15 kcal/mol
17,GGGTGCACGTGTCAGC,0.17 kcal/mol
18,TTGAACACGTGGTGAG,-0.03 kcal/mol
19,TGTGGCACGTGCGGCG,-0.25 kcal/mol
20,CTGGGCACGTGGTTAG,-0.3 kcal/mol
21,GGGTTCACGTGGAAGC,0.57 kcal/mol
